The list shows a part of the results.
B1: chr2:216981417:216981418:+_ENSG00000079246_ENST00000392132|hu_hu|hu_hu_hu_mus_True|1_1 (ssRNA)
RNA: GGGAGUUCUACAGUCCGACGAUCCUGAUACUGGUCCUUGCCAGCAAGGGCAUUAUCAGUGCCAUCUGUGCCAUAGAGGACUAACGCAAUCUCAUCUUUGCUCUCCGAAAAUACCUGUCGUUGGACAAACAUAGUCAUCACCUUCAACAGAGGAUUGAGCAUCA
B2: 130037582_130039980_264_3pUTR_ENSMUSG00000074088_ENSMUST00000105994|mouse|control|control (ssRNA)
RNA: GGGAGUUCUACAGUCCGACGAUCAAGCCAGGGUGGAUCCAUUGGGGUGAAACUUGCAGCAGUACACUUCCCCCUCAUGUCCCGAGAGCAGCAUGAUUGGAGCUUGAAGGGAAGAACACCUGGGCGGUCCCGCCUGCAGCAAUGCAACAGAGGAUUGAGCAUCA
B3: 53432259_53432480_2043_3pUTR_ENSG00000072501_ENST00000322213|human|control|control (ssRNA)
RNA: GGGAGUUCUACAGUCCGACGAUCGGUCACUGGCCCCACCAGAGAUCACUCCUGACUUCUGGAAUAGGGUUCCAUCCAGUGCCACUGUCUUGUGGCGCUGGUGGCCUCCAAAGGCAAUGCGGCGGGCAUCUUCCACGUUGUCACCAACAGAGGAUUGAGCAUCA
B4: chr4:144391305:144391306:+_ENSG00000109458_ENST00000262995|hu_hu|motif|central (ssRNA)
RNA: GGGAGUUCUACAGUCCGACGAUCGGCACUAUGGUGUCAAAAGACAGAAUUUCAUAGAGUAAUAAAUCUGAAUUACGGUCGGAUUAAAAAUCACAGUAUGUUGCUGUAACUAACAGUGAAUGUCAACUGCUUUAUUAAUUCCAACAACAGAGGAUUGAGCAUCA
B5: chr2:29004620:29004621:+_ENSG00000213639_ENST00000296122|hu_mus|motif|central (ssRNA)
RNA: GGGAGUUCUACAGUCCGACGAUCCAAUUUAAUAUUAAAUCUUCGUUUACACUCAUCGUAGAAUCCAUAAAUGCGAUUGAUGCGGGCACACUCAUGGUUUCCUCUUAGAAGAAAGAAGUUCUCCGGGUAUUUGAUUUUGUAAGCCAACAGAGGAUUGAGCAUCA
B6: chr9:44565267:44565268:-_ENSMUSG00000032096_ENSMUST00000034607|mus_hu|FALSE|FALSE (ssRNA)
RNA: GGGAGUUCUACAGUCCGACGAUCAUUAAUGGGUGGAGCAUGCAUUUUGGUUGCUUCAGAAGUACGCUUGCCCAUACUAGAGGACAUGAUGGUUUCACCUUCAGAUUUUAAUUUGUCCACAAAGUUAUCUACUUCCUUUCCUUUCAACAGAGGAUUGAGCAUCA
B7: 243354369_243354489_1050_3pUTR_ENSG00000143702_ENST00000366542|human|control|control (ssRNA)
RNA: GGGAGUUCUACAGUCCGACGAUCUCCUCUUCUGUUCUUUCCCAUAGCAUUUGAGGAGGGUUGUUUUGUGCUAGCCAGUCAGCAACUUUGUUUUCGGGUGCCAUCAUUCCUGUUUGAAUCCCCAGCAAGUCUUGAGUUCCAGGACAACAGAGGAUUGAGCAUCA
B8: chr19:16212804:16212805:+_ENSG00000167460_ENST00000300933|hu_mus|hu_hu_hu_mus_False|1_28 (ssRNA)
RNA: GGGAGUUCUACAGUCCGACGAUCAACAAUUCUGGAGUGAAGGAAAGAUGUAACAUGGAACAGCAUUAAAGCUCAGUCAGAAGGCACAUGGGCAACAAUGAUCACCCCCCAAGCAUUGCUUGGAAUGCUUAAAGACAGAUGUUUCAACAGAGGAUUGAGCAUCA
B9: chr6:31700055:31700056:-_ENSG00000213719_ENST00000375779|hu_mus|motif|central (ssRNA)
RNA: GGGAGUUCUACAGUCCGACGAUCUCCACGGAAUGCCUCUGGGAUGGUGAAGCCUCUGUACUUUUUGCACACCACCUGUACGGUGUGAAGCUUUGGCAGCAGGUUGCAGUCAGCCAGGGUGAGCUCAUUGCCGUCCAGAAACUUCAACAGAGGAUUGAGCAUCA
B10: 15287172_15288884_2317_CDS_ENSG00000131375_ENST00000253693|human|control|control (ssRNA)
RNA: GGGAGUUCUACAGUCCGACGAUCUUGGAAAUUUCCACAUCCUCCAGCACUCUGACCACUCCACUUUCCAUUAAUCCGUUUUGAUAAGGUGUAUGGUGAAGGAAUCUUUGAAAAAGUAAAGCUGCAUGCUGAAUAUACCCGAACCAACAGAGGAUUGAGCAUCA
B11: 3596234_3596354_291_5pUTR_ENSMUSG00000040302_ENSMUST00000042753|mouse|control|control (ssRNA)
RNA: GGGAGUUCUACAGUCCGACGAUCCCGCCCCCUAGAGCUUCGGAGGUGGCCCGAGGGUGACAGCGGCCGGGCGUGGGAAGAGGGGGGCGGGCCUGAUCGAUGUUCUCGGGUUCCGACGCUCUCACCUGACGAGAAGCCGGUGGACAACAGAGGAUUGAGCAUCA
B12: chr3:179287964:179287965:+_ENSG00000136518_ENST00000429709|hu_hu|motif|central (ssRNA)
RNA: GGGAGUUCUACAGUCCGACGAUCUUUUAGAGGUGAAAUGGCCUCCAUAUUCUCCCUCGGAACACGCAGAGCAUUAGUAUCGGUGUAGUAGGUGGGACCGCCUUGUUUGCCUUUAUCGCCAUCUAUUUCCAUUAAUGUGCUUCCCAACAGAGGAUUGAGCAUCA
B13: 110446508_110446628_2264_3pUTR_ENSG00000134987_ENST00000506538|human|control|control (ssRNA)
RNA: GGGAGUUCUACAGUCCGACGAUCUUUGGAGAUGAACUGAGGCUCACAGAAUGGAUUAAAAUUUUGUUUUUAAAGUUCCAGAAUUUGAGUAAUCCUUCACUACCAGUUGUAACUGUCAACUGGUUUAAUCCAUCCACUGCGACACAACAGAGGAUUGAGCAUCA
B14: chr11:9452432:9452433:+_ENSG00000205339_ENST00000379719|hu_mus|FALSE|FALSE (ssRNA)
RNA: GGGAGUUCUACAGUCCGACGAUCAAAUGUCAUUGCCAGAUGUUGUGUCAUUUCUACAGCAAUAGGAGUAACUUCUUCACUAUAUUCACAGAUCAUUUUCUGAAUUACAUUUGUAAGAUCAUCAUUUUCUGUUUCUCUUAUAAUCAACAGAGGAUUGAGCAUCA

target: T1, UNK ZnF1-3 (human, UniProt Q9C0B0 31-174); assay: nsRBNS (natural sequence RNA bind-n-seq); RBNS binding buffer (assumed for nsRBNS): 25 mM Tris pH 7.5, 150 mM KCl, 3 mM MgCl2, 0.01% Triton X-100, 500 ug/ml BSA, 20 U/ml SUPERase-In, 4 C; UNK is unkempt and MSI1 is Musashi-1; names of the RNAs are library labels; protein concentration not given here; high values mean tight binding
T1 sequence: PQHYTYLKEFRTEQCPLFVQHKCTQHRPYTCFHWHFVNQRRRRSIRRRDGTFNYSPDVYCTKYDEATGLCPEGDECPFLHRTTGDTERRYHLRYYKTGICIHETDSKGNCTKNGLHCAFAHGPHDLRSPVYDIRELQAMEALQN

Row | Binder | binding signal [enrichment R]
1 | B1 | 0.744
2 | B2 | 1.06
3 | B3 | 0.548
4 | B4 | 0.561
5 | B5 | 1.1
6 | B6 | 0.607
7 | B7 | 0.667
8 | B8 | 1.34
9 | B9 | 0.768
10 | B10 | 1.34
11 | B11 | 0.423
12 | B12 | 0.677
13 | B13 | 0.866
14 | B14 | 0.605

Source: article PMC12136788
